Laboratory results as given in patent US20240116863A1, “DIPHENYL THIOUREA AND DIPHENYL UREA DERIVATIVES AS INHIBITORS OF ENDOCYTOSIS” (priority 2022, published 2024).

Tested on: IAV Udorn (H3N2) and NYMC (H3N2) strains
Assay type: cell-based, influenza A virus

Row | SMILES | effect on infection with IAV Udorn (H3N2) and NYMC (H3N2)
1 | O=C(Nc1cc(F)cc(F)c1)Nc1cc(F)cc(F)c1 [DPUD-16, 1,3-bis(3,5-difluorophenyl)urea] | Reduced infection
2 | O=C(Nc1ccc(OC(F)(F)F)cc1)Nc1ccc(OC(F)(F)F)cc1 [DPUD-20, 1,3-bis(4-(trifluoromethoxy)phenyl)urea] | Reduced infection
